Consider four molecules from US20090291910A1, “AGENT AND FOOD FOR PREVENTING/IMPROVING FUNCTIONAL DIGESTIVE DISORDER” (AJINOMOTO CO., INC, priority 2004, published 2009).

Assay [1] deals with vagus nerve gastric branches afferent activity. Briefly: activation of vagus nerve by intragastric MSG when mucous membrane serotonin is depleted or NO synthesis is inhibited. The format is in vivo, SD (IGS) rats. How it is done: To study the activation of vagus nerve by intragastric administration of monosodium glutamate when mucous membrane serotonin was depleted or NO synthesis was inhibited, the following experiments (A) and (B) were performed.
SD (IGS) rats (male, 8- to 10-week-old: CHARLES RIVER LABORATORIES JAPAN, INC.) were use for the experiment. After fasting for 15-17 hr, the rats were subjected to laparotomy under urethane anesthesia (1 g/kg, i.p.) to expose ventral vagus nerve gastric branches, and the afferent activity was recorded according to the method (Niijima A., et al., Physiol Behav. 1991 May; 49(5): 1025-8.).
(A) P-chlorophenylalanine (PCPA) was dissolved in 5% CMC solution, and administered at 200 mg/kg/rat twice a day for 2 days (intraperitoneal administration). The final administration of PCPA was performed 15 min before the administration of MSG aqueous solution (150 mM; intragastric administration). (B) NG-nitro-L-arginine methyl ester (L-NAME) was dissolved in saline, and administered at a rate of 10 mg/kg/rat from the cannula dwelled in the femoral vein 15 min before administration of MSG aqueous solution.

Assay [2] shares this test system.

SMILES strings stand for the structures.

`N[C@@H](Cc1ccc(Cl)cc1)C(=O)O` (racemic) [PCPA, P-chlorophenylalanine]: the “effect of pretreatment on enhancement of nervous activity after intragastric MSG” value in assay [1] (PCPA 200 mg/kg/rat i.p. twice a day for 2 days, MSG 150 mM, FIG. 2A) is given as “eliminates sustained enhancement of nervous activity”. `Nc1nc2c(ncn2[C@@H]2O[C@H](COP(=O)([O-])[O-])[C@@H](O)[C@H]2O)c(=O)[nH]1.[Na+].[Na+]` [GMP, sodium guanylate]: the “activation of vagus nerve gastric branches” value in assay [2] (GMP 10, 30, 60 mM aqueous solution intragastric 2 mL/rat, FIG. 1C) is recorded as “dose-dependently activates vagus nerve gastric branches”.

`COC(=O)[C@@H](N)CCCNC(=N)N[N+](=O)[O-]` [L-NAME, NG-nitro-L-arginine methyl ester]: in assay [1] (L-NAME 10 mg/kg/rat femoral vein 15 min before MSG, FIG. 2B), the “effect of pretreatment on enhancement of nervous activity after intragastric MSG” value is listed as “same phenomenon as in (A)”.

On to `N[C@@H](CCC(=O)O)C(=O)[O-].[Na+]` [monosodium glutamate], for which, in assay [2] (MSG 150 mM aqueous solution intragastric 2 mL/rat), the “activation of vagus nerve via 5-HT3 receptor at the terminal of the vagus nerve gastric branches” value is given as “activates vagus nerve”.
